According to PMC12480466:
These are yes or no findings as the source states them, for the method shown. Binding seen in cells or lysates may run through a third protein. Some results given as binding are weak or reduced against the parent protein; the word gives no strength. Where a sequence is shown, tags or fusion partners need not be part of it.

By UniProt entry, the sequences of proteins in these tests, tags left out. Where a name states a change or a piece, a line headed by the entry shows the natural chain unless it says otherwise. Residues count along the entry.
UniProt P53350: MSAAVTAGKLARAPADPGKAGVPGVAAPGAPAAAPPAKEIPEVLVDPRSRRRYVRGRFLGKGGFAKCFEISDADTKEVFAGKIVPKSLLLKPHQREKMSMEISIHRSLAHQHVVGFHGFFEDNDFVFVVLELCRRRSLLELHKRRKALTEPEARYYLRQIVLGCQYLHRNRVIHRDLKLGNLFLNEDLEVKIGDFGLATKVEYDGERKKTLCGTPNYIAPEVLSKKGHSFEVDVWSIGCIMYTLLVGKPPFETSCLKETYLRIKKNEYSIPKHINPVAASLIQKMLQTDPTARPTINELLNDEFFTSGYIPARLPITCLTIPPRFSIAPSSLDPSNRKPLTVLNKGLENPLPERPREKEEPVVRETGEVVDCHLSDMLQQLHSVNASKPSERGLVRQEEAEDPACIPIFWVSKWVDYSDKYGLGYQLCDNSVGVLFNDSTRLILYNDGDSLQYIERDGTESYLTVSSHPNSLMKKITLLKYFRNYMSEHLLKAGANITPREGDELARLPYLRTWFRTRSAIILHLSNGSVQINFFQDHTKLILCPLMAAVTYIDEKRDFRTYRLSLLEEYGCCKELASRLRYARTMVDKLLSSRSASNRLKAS
GFP-PLK1 C-terminus (311–603 aa): residues 311-603 of P53350
UniProt Q9BV73: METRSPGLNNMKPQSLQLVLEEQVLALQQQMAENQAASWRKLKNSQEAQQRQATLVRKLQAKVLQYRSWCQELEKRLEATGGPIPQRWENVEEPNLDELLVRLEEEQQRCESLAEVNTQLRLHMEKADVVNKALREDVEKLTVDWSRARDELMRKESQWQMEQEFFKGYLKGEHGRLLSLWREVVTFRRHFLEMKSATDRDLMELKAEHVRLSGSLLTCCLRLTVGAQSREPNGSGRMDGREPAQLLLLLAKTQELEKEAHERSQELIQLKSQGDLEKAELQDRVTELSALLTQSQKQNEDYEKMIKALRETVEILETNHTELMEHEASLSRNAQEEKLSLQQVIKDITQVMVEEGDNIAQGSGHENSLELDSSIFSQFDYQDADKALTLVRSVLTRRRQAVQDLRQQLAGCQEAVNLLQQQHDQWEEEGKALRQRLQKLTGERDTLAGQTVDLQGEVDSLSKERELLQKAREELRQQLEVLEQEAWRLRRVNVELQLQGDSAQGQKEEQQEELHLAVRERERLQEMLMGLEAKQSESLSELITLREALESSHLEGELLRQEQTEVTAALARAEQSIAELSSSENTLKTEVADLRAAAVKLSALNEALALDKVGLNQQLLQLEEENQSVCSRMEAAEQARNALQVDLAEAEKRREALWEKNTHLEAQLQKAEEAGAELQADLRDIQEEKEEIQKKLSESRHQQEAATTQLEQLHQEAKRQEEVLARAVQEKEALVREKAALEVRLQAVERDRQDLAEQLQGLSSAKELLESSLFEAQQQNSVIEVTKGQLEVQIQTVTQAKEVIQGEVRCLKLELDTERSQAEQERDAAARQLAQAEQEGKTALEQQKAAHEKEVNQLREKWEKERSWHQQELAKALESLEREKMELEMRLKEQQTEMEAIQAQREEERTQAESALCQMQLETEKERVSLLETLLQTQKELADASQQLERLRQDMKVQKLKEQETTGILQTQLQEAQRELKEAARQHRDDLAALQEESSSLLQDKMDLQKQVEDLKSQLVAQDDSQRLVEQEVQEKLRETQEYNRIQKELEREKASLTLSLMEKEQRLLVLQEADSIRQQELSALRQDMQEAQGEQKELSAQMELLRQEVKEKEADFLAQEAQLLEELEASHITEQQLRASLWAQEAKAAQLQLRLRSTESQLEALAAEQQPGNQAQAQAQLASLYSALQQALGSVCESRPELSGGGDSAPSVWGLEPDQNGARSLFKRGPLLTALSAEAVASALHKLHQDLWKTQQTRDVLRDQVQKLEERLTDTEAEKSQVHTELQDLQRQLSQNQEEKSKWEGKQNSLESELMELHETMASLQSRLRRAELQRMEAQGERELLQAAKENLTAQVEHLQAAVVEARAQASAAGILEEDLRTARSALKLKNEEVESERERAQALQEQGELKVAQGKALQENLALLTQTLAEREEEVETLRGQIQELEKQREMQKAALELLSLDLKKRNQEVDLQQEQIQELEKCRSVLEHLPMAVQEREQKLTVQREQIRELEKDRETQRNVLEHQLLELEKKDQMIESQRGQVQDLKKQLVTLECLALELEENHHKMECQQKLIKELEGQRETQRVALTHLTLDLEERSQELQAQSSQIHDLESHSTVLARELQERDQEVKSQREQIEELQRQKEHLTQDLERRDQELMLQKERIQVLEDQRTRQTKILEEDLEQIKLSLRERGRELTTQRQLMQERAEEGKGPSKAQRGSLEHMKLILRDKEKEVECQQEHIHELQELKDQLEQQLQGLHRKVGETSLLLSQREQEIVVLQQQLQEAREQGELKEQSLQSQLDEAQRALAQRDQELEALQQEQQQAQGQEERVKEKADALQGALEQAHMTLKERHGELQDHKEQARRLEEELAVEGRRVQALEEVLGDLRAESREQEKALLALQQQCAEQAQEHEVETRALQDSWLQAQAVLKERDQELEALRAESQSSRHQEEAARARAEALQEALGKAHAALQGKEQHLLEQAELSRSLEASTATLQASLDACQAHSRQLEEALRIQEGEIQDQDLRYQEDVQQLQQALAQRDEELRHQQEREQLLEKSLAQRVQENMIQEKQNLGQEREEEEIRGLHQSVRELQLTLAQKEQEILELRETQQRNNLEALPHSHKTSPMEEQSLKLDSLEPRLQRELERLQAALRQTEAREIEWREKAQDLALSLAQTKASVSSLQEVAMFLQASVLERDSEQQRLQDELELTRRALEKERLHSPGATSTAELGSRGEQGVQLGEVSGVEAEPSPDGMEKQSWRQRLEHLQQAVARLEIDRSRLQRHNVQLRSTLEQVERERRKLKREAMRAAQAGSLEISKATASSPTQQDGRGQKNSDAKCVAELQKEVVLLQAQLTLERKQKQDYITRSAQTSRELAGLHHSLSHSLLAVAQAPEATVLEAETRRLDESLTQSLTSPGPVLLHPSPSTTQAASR
UniProt Q8TEP8: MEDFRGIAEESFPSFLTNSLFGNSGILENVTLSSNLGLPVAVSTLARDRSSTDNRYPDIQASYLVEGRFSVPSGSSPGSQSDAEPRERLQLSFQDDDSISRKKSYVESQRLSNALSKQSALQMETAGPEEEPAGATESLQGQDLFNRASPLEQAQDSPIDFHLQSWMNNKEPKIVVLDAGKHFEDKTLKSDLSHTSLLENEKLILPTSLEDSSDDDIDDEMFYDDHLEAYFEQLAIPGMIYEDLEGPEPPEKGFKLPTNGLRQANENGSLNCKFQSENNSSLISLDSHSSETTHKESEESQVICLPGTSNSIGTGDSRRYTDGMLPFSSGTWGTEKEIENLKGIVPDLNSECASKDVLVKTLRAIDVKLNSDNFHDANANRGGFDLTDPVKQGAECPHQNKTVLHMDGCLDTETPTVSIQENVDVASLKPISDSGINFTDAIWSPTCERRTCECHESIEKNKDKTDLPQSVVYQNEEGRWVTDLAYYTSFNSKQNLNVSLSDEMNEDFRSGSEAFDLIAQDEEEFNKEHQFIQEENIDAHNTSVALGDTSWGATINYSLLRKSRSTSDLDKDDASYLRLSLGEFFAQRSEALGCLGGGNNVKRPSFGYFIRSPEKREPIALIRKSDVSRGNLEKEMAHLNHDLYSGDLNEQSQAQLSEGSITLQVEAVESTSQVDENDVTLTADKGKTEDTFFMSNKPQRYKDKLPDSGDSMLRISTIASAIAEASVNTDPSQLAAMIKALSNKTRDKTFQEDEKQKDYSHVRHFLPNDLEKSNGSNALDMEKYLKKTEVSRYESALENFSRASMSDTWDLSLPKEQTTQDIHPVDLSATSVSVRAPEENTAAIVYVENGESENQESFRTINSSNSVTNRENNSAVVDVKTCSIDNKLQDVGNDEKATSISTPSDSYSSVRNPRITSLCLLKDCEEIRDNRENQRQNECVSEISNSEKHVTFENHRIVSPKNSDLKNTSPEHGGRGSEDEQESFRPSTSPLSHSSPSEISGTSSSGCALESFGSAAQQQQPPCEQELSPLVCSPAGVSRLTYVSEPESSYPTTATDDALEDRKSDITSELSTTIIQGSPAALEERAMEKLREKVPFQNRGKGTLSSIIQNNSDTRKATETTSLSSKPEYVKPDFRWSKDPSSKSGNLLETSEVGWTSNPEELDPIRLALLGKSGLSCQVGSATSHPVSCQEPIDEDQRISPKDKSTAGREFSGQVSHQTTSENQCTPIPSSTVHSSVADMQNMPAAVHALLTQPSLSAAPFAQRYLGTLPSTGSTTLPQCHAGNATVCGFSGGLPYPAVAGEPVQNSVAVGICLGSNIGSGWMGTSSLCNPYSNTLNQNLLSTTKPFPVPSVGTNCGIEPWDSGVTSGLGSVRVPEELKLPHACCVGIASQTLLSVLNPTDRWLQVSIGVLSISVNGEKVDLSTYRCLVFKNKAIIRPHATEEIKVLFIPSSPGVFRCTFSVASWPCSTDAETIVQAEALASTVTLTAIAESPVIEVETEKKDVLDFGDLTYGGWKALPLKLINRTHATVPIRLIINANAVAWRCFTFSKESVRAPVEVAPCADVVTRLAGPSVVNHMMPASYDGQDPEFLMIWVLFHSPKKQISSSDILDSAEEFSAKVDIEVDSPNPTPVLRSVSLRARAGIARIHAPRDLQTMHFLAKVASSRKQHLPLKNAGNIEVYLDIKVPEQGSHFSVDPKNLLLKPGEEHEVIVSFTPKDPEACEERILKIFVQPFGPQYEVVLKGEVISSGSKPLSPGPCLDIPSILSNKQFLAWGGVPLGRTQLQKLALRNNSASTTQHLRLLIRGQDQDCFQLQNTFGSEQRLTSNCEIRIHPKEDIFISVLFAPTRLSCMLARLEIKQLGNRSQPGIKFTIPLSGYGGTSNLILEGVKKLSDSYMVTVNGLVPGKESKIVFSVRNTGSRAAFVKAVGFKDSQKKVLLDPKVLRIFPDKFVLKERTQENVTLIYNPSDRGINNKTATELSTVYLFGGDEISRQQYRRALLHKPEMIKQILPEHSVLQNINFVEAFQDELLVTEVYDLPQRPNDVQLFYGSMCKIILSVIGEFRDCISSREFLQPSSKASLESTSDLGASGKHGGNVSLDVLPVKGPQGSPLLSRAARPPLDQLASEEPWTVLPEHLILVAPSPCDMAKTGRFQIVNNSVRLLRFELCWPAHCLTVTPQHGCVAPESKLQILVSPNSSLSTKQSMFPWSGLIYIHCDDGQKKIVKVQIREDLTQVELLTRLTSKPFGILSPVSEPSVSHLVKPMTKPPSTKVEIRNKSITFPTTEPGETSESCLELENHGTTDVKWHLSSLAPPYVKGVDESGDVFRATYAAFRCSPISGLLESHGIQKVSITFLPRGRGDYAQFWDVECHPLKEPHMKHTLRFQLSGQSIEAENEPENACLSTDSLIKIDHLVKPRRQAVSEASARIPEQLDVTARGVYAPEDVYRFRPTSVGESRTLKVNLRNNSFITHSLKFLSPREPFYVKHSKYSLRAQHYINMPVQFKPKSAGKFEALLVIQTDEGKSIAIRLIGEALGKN

Key:
GFP-PLK1 (FL) (human) = GFP-PLK1 (FL) (human) (UniProt P53350); test: co-IP; lysates of HEK293T cells overexpressing both tagged proteins; lysis buffer 150 mM NaCl, 50 mM HEPES, 1 mM MgCl2, 1 mM EGTA, 0.5% Triton X-100, pH 7.4; antibodies and protein G-Sepharose, 4 °C, 4 h or overnight; immunoblotting
[1] = target: GFP-PLK1 C-terminus (311–603 aa) (human) (UniProt P53350); test: as above
C-Nap1-GFP (human) = C-Nap1-GFP (human) (UniProt Q9BV73); test: as above
[2] = target: PLK1 (endogenous, HEK293T) (human (endogenous in HEK293T)) (UniProt P53350); test: co-IP; lysates of HEK293T cells overexpressing 3×FLAG-TUFT1 only; partners blotted with their own antibodies; lysis buffer 150 mM NaCl, 50 mM HEPES, 1 mM MgCl2, 1 mM EGTA, 0.5% Triton X-100, pH 7.4; protein G-Sepharose, 4 °C
[3] = target: Cep192 (endogenous, HEK293T) (human (endogenous in HEK293T)) (UniProt Q8TEP8); test: as above
[4] = target: T1, SAS-6 (endogenous, HEK293T) (human (endogenous in HEK293T)) (UniProt Q6UVJ0); test: as above
T1 sequence: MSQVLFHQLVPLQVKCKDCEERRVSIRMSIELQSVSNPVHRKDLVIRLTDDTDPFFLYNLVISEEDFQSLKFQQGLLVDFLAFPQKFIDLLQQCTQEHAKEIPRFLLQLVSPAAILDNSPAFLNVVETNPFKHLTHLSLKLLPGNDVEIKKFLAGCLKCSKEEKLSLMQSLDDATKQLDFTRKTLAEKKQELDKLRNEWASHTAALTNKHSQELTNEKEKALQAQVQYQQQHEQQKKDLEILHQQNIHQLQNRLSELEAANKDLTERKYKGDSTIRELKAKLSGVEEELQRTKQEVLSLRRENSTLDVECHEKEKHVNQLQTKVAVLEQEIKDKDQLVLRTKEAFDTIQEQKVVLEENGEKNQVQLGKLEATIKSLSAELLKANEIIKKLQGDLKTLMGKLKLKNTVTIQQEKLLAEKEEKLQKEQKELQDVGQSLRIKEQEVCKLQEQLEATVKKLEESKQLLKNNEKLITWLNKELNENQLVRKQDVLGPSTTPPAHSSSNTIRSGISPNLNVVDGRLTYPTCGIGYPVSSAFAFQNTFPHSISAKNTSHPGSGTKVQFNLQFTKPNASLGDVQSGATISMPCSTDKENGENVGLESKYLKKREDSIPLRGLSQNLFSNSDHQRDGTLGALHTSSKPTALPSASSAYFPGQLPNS

binding (GFP-PLK1 (FL) (human)): binds | binding [1]: binds | binding (C-Nap1-GFP (human)): binds | binding [2]: binds | binding [3]: no binding | binding [4]: no binding
B1: 3×FLAG-TUFT1 (full-length, FL; WT) (protein, UniProt Q9NNX1-1 1-390)
chain: MNGTRNWCTLVDVHPEDQAAGSVDILRLTLQGELTGDELEHIAQKAGRKTYAMVSSHSAGHSLASELVESHDGHEEIIKVYLKGRSGDKMIHEKNINQLKSEVQYIQEARNCLQKLREDISSKLDRNLGDSLHRQEIQVVLEKPNGFSQSPTALYSSPPEVDTCINEDVESLRKTVQDLLAKLQEAKRQHQSDCVAFEVTLSRYQREAEQSNVALQREEDRVEQKEAEVGELQRRLLGMETEHQALLAKVREGEVALEELRSNNADCQAEREKAATLEKEVAGLREKIHHLDDMLKSQQRKVRQMIEQLQNSKAVIQSKDATIQELKEKIAYLEAENLEMHDRMEHLIEKQISHGNFSTQARAKTENPGSIRISKPPSPKPMPVIRVVET
